Results: ChEMBL document CHEMBL4888484, “Replenishing the malaria drug discovery pipeline: Screening and hit evaluation of the MMV Hit Generation Library 1 (HGL1) against asexual blood stage Plasmodium falciparum ,using a nano luciferase reporter read-out” (2022)
Out of some 150,000 compounds screened, about 540 (0.36%) showed an effect of 50% or more. The list shows a part of the results.

system: Plasmodium falciparum; assay: Primary screen in NF54 nanoGlo assay, in single point, at 2uM, 72h; a lower Z score goes with more inhibition; assay type: functional, Erythrocyte; conditions: timepoint 72 hour

Row | SMILES | % Inhibition [%] | Z score
1 | Cc1ccccc1NC(=O)Cn1c(=O)cnc2cc(C(=O)NC3CCCC3)ccc21 | -15 | 1.7
2 | O=C(CNC(=O)NCCc1cccc(F)c1F)NC1CC1 | 29 | -3.22
3 | COCCC1(CNC(=O)NCc2cc(C)no2)CCCC1 | -6 | 0.95
4 | Cc1ccccc1C(=O)Nc1cnc(-n2ccnc2C)nc1 | -6 | 0.98
5 | C[C@H]1COC2(CCN(c3ncnc4c3oc3ccccc34)CC2)O1 | 1 | -0.19
6 | Cc1ccc(-c2ccccc2CN2C[C@H]3CC[C@@H](C2)N(C)C3=O)o1 | -6 | 1.03
7 | CCC(=O)Nc1cc2c(cc1OC)[C@H](c1ncnn1CC)CC(=O)N2 | -11 | 2.1
8 | CCC(CC)C(=O)c1c[nH]c(C(=O)NC2CCCCCC2)c1 | 28 | -3.57
9 | CCn1cc(NC(=O)Nc2nccn(C)c2=O)cn1 | -12 | 2.19
10 | CC(C)=CCN1C[C@@H]2CC[C@H]1CN(C(=O)c1ccc3[nH]c(CO)nc3c1)C2 | -3 | 0.32
11 | CNc1nnc(COCc2ccccc2)o1 | -1 | 0.17
12 | O=C(Cc1cccnc1)N1CC(F)(F)C[C@H]1c1nncn1Cc1ccc(F)cc1 | 0 | 0.03
13 | O=C(c1cnn(CCC(F)(F)F)c1)N1CC[C@H](c2cccnc2)C1 | 4 | -0.69
14 | O=C(O)c1cccnc1NCCc1cccc(F)c1 | -10 | 1.78
15 | Cc1cc(CN2CCN(C3CCCC3)C[C@@H](O)C2)on1 | 16 | -2.09
16 | Cc1oc(-c2ccc(-c3ccccc3)cc2)nc1CN1CCC[C@H](CN2CCCC2=O)C1 | -17 | 1.79
17 | Cc1nccn1C1CN(C(=O)c2cccc3[nH]ccc23)C1 | -6 | 0.74
18 | C[C@]12CCC3C(CC[C@H]4CC(O)CC[C@]34C)C1CCC2NC(=O)CN1CCOCC1 (stereo not given in full) | -10 | 1.26
19 | Cn1nccc1C(=O)NC1CCN(c2nc3cccnc3s2)CC1 | -8 | 1.51
20 | CC1CN(C(=O)c2ccc3[nH]nnc3c2)CC(C)O1 (stereo not given) | 6 | -1.18
21 | c1ccc2nc(N3CCN4CCC[C@H]4C3)cnc2c1 | -4 | 0.77
22 | Cc1cccc(CC2(N[C@@H](C)CCn3ccnc3C)CC2)c1 | -3 | 0.53

Row | SMILES | % Inhibition [%] | Z score
23 | CCOC(=O)c1noc2nc(C)nc(N3CCCC3)c12 | -10 | 1.84
24 | CC(C)(C)[C@H]1OCC[C@@H]1c1noc(-c2ccnc3ccncc23)n1 | -7 | 1.35
25 | CN(C)CC(=O)N1CC[C@H]1c1cccc(Br)c1 | -8 | 1.55
26 | OCC1(CO)CCCN(Cc2cnc3c(-c4ccccc4)cnn3c2)C1 | 3 | -0.38
27 | CC1CC1CN(C(=O)Nc1cccnc1)C(C)C (stereo not given) | -3 | 0.48
28 | Cc1cccc(C(=O)Nc2cccc(C(=O)NC3CC3)c2)n1 | -15 | 2.52
29 | Cc1nc(Cn2nnc(NC(=O)C[C@@H]3C=CCCC3)c2C)no1 | 2 | -0.38
30 | CC(=O)NC1CCC(N[C@@H](C)c2cc3ccccc3o2)CC1 (stereo not given in full) | -4 | 0.81
31 | COc1ccc([C@@H](NC(=O)c2noc3c2COCC3)C(F)(F)F)cc1F | -9 | 1.29
32 | C[C@@H]1OCCO[C@@H]1C(=O)N1c2ccc(F)cc2NC(=O)C12CCC2 | -4 | 0.6
33 | Cc1cc(NC(=O)C2(S(C)(=O)=O)CCCC2)nc(C(C)C)n1 | 0 | -0.06
34 | COc1cc(-c2nc(C3CC3)no2)cc2c1OCCO2 | -6 | 0.8
35 | COc1ccc(C(=O)N2CCN(c3nc(CN4CCN(c5ccccc5F)CC4)cc(=O)[nH]3)CC2)cc1 | -6 | 0.96
36 | CN(C)CC1CCC(NS(=O)(=O)c2ccc(OCC(F)(F)F)nc2)CC1 (stereo not given) | -2 | 0.3
37 | N#Cc1cccc(CN2CCC3(CCC(=O)N(CCc4ccccn4)C3)CC2)c1 | -3 | 0.31
38 | Cc1cc(CN(C)C(=O)C2=NNC(=O)CC2)no1 | -9 | 0.97
39 | Cc1csc(CNC(=O)N2CC[C@H](N3CCCS3(=O)=O)C2)c1 | -12 | 2.57
40 | Cc1ccc(CNC(=O)N2CC(F)C2)s1 | -6 | 1.12
41 | Cc1ccsc1CNC(=O)Cn1cc(-c2ccccc2)c(C(F)(F)F)n1 | -5 | 0.9
42 | O=C(Nc1ccccc1Cl)c1ccc(F)c(S(=O)(=O)N2CCC(Cc3ccccc3)CC2)c1 | -3 | 0.41
43 | Cc1nc2c([nH]1)CN(Cc1ccc3c(c1)OCCO3)CC2 | -18 | 2.4
44 | Cc1ccc(S(=O)(=O)NC2CNCCC2C)cc1C (stereo not given) | -5 | 0.88

Row | SMILES | % Inhibition [%] | Z score
45 | COc1cc(OC)c(N2C(=O)CC[C@@]2(C)C(=O)NC2CCCC2)cc1Cl | -10 | 1.83
46 | CCc1ccc(NC(=O)N2C[C@@H]3CN(S(=O)(=O)c4ccccc4)C[C@H](C2)O3)cc1 | -9 | 0.84
47 | Cc1ccccc1CNC(=O)N1CCC2(CC1)[C@H](O)C[C@@H]2OCCO | -3 | 0.54
48 | O=C(N[C@H]1CCN(Cc2ccsc2)C1)c1cnccn1 | -10 | 1.52
49 | Cc1c(-c2cc(-c3cc(CN(C)C)cs3)nc(N)c2C#N)cnn1C | -6 | 0.72
50 | Cc1ncc(C(=O)N2C[C@@H]3CCCN3Cc3ccccc32)s1 | -7 | 0.95
51 | CCN1C(=O)[C@@H]2CN(C(=O)c3ccc4[nH]c(C)c(C)c4c3)CCN2C1=O | 0 | -0.04
52 | O=S(=O)(c1ccccc1C(F)(F)F)N1CC[C@]2(CCN(c3cccnc3)C2)C1 | 38 | -5.11
53 | CN(C(=O)[C@@H]1CCCCC(=O)N1)C(C)(C)CN1CCOCC1 | -3 | 0.31
54 | CN(CCC1(O)CCCC1)C(=O)c1cccc(F)c1F | -11 | 1.51
55 | Cc1cccc(C(=O)NCCNc2noc(-c3ccccc3)n2)c1 | -9 | 1.37
56 | CC(C)N1CCC(CCNC(=O)[C@H]2CN(C(=O)c3ccncc3)CC23CCCCC3)CC1 | 6 | -1.06
57 | C/C=C/CC(=O)N1CCC2(CC1)C[C@@H](c1ccccc1)C(=O)N(C)C2 | 2 | -0.24
58 | CCCn1cnc(C(N)=O)c1NC(=O)Cc1c(C)noc1C | -12 | 2.33
59 | O=C(O)Cn1nc(C2CCCC2)nc1CCOc1ccccc1 | -6 | 1.09
60 | C=CCCC(=O)NCc1csc(NC(=O)CCC=C)n1 | -16 | 1.6
61 | C[C@@H](CCNC(=O)c1cccnc1NC1CCCC1)c1ccccc1 | -15 | 1.35
62 | NC(=O)c1csc(C(=O)NC[C@H]2CCCC[C@@H]2O)c1 | 8 | -1.03
63 | CC(C)OCCS(=O)(=O)NC1(c2ccccc2)CC1 | -16 | 2.06
64 | CCCc1cc(N2CCO[C@H](c3cccc(Cl)c3)C2)n2ncnc2n1 | -5 | 0.66
65 | CC(NCC1CS(=O)(=O)c2ccccc21)[C@@H]1C[C@H]1C1CC1 (stereo not given in full) | -3 | 0.41
66 | O=C1N[C@H](Cc2c[nH]cn2)C(=O)NC1C1CCCCCC1 (stereo not given in full) | 13 | -1.64

Row | SMILES | % Inhibition [%] | Z score
67 | Cc1nc(-c2ncc(C(=O)N(C)Cc3noc(C4CC4)n3)c(O)n2)cs1 | -10 | 0.93
68 | CC(NC(C)C1CCCO1)c1nc2ccccc2o1 (stereo not given) | 7 | -1.05
69 | Cc1ccccc1-c1ccccc1C(=O)N[C@H]1C[C@H]2OCC[C@@H]12 | -4 | 0.38
70 | Cc1ccc(Cl)cc1-n1ncc2c(=O)n(CC(=O)N3CCN(c4ccc(F)cc4)CC3)cnc21 | -13 | 2.39
71 | CC1CCN(S(=O)(=O)c2ccc(N3CCCCS3(=O)=O)cc2)CC1 | -11 | 1.12
72 | CCCc1ccc(S(=O)(=O)N2CCC3(CC2)NCCCN=C3NC2CCCC2)cc1 | -1 | 0.09
73 | N#Cc1cccc(N2C3CCC2CC(O)C3)n1 (stereo not given) | -7 | 1.49
74 | COc1cccc(-c2ccc3c(c2)O[C@H]2CN(CC4CC4)C[C@H]2N(C)C3=O)c1 | 5 | -0.77
75 | CCCC(=O)Nc1cccc(C(=O)O)c1C | 33 | -4.44
76 | COc1ccc(CCNC(=O)N2CC=C(C(F)(F)F)CC2)cc1F | 6 | -1.17
77 | COc1ccccc1NC(=O)[C@H]1CCCN(c2ncnc3oc(C)c(C)c23)C1 | -9 | 0.91
78 | c1ccc2[nH]c(CCc3nc4ccccc4s3)nc2c1 | 0 | -0.05
79 | COC(=O)CCN(CC(C)C)c1nc(-c2cccnc2)nc2ccccc12 | -12 | 1.51
80 | COCCn1c(CN(C)C)nnc1[C@H]1C[C@@H](N)C1 | 4 | -0.63
81 | CC(C)N1CC[C@@H]2[C@H]1C(=O)NC[C@H](CCC(=O)Nc1ccccc1)N2C | -4 | 0.63
82 | C[C@@H](CCO)CNc1noc(-c2ccccc2)n1 | -6 | 0.94
83 | CCc1nc2c(c(OC3CCN(C(=O)Cc4cccs4)CC3)n1)CCOCC2 | -7 | 0.9
84 | Cc1nc(-c2cc3cccc(C)c3nc2N2CCN(C(=O)c3cccs3)CC2)no1 | -5 | 0.74
85 | O=C(COc1ccccc1C(=O)N1CCCCC1)NCc1ccc2c(c1)OCO2 | -10 | 1.3
